Laboratory results as given in PubChem BioAssay AID1476 (National Center for Advancing Translational Sciences (NCATS), 2009).
About 4,500 (2.2%) of roughly 200,000 compounds were called active. This list was built around the results that the source calls inconclusive (neither active nor inactive); the mix of calls is not that of the screen. The call rests on the fitted dose curve; in most records, active means well fitted inhibition curve with a large enough effect; inconclusive means small, poorly fitted or top-dose-only effect, or effect the other way; inactive means flat fitted curve, though single readings scatter. Where the call is inconclusive, the potency comes from a doubtful curve fit.

biological target: Cruzipain (Trypanosoma cruzi) (UniProt P25779); experiment: qHTS Assay for Promiscuous and Specific Inhibitors of Cruzain (without detergent); settings: purified cruzain, Z-FR-AMC fluorescence, no detergent; further: nearly all actives have a fitted effect of over 40% in size;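 on max response, negative = inhibition: plate controls were enzyme without inhibitor for no effect and buffer without enzyme for full effect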
Chain of UniProt P25779 (P25779 whole entry, looked up): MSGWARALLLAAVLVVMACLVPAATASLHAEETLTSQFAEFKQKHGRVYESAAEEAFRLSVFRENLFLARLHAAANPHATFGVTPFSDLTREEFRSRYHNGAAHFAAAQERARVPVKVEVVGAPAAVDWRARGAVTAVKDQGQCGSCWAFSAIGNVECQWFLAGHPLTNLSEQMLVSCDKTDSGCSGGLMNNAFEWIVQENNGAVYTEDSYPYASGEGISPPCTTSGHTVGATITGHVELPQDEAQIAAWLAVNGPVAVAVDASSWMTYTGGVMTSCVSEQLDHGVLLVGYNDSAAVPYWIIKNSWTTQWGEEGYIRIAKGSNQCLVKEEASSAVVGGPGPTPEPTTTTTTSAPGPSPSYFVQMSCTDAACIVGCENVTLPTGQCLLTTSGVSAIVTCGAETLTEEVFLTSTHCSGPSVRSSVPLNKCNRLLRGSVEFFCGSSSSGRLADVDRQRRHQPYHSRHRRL
Method in brief: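 Detergent-free condition (0.00005% Triton X-100) in acetate buffer pH 5.5 with DTT. 1.5 nM enzyme and compound were pre-mixed 15 min, then 2 uM Z-FR-AMC substrate added; reaction progress from fluorescence change between first and third reads (60 s).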
Potency means the concentration at half of the fitted maximal effect; tags describe the fitted curve by direction and shape.

| Compound | max response, negative = inhibition | Potency |
| --- | --- | --- |
| COC(=O)C1(C(=O)OC)CC2=CC(CC2=O)Cc2ccccc2[C@@H]1C[N+](=O)[O-] (stereo partly specified) | inactive: -7.95% | – |
| Cn1c(=O)n(C)c2cc(/C=N/NC(=O)c3cccc(Br)c3)ccc21 | – | inconclusive: 31.6 µM [inhibitor, single point] |
| CC12CN3CC(c4ccccc4)(CN(C1)C3c1ccc(Cl)cc1)C2=O (stereo unspecified) | inactive: -0.0544% | – |
| O=c1c2c3c(sc2n(CCN2CCOCC2)c(=O)n1Cc1ccco1)CCCCC3 | – | inconclusive: 39.8 µM [activator, single point] |
| N#Cc1c(NC(=O)CSc2nc3c(c(C(F)(F)F)n2)CCc2ccccc2-3)sc2c1CCCC2 | – | active: 7.94 µM |
| CCc1ccc(S(=O)(=O)c2nnn3c2nc(NC(C)C)c2cc(Cl)ccc23)cc1 | inactive: -5.51% | – |
| Cc1cccc(N(CC(=O)N(C)Cc2ccccc2)S(=O)(=O)c2ccccc2)c1C | inactive: -0.798% | – |
| O=C(Nc1nc2ccccc2s1)c1ccc(Cl)s1 | – | inconclusive: 25.1 µM [inhibitor, single point] |
| Nc1c(S(=O)(=O)c2cc(Cl)ccc2Cl)c2nc3ccccc3nc2n1CCN1CCOCC1 | – | inconclusive: 39.8 µM [activator, single point] |
| COCCn1c(SCC(=O)Nc2nc(C)c(Cl)cc2Cl)nc2ccccc21 | – | inconclusive: 31.6 µM [activator, single point] |
| Cc1ccc(S(=O)(=O)Nc2cc(C(=O)N3CCC4(CC3)OCCO4)ccc2N2CCCCC2)cc1 | – | inconclusive: 31.6 µM [activator, single point] |
| O=C(Nc1nc(-c2ccc3c(c2)Cc2ccccc2-3)cs1)c1ccccc1 | – | active: 20 µM |
| CN(c1ccc([N+](=O)[O-])cc1/C=N/NC(=O)COc1ccccc1)C1CCCCC1 | – | inconclusive: 39.8 µM [inhibitor, single point] |
| CCCC1CCC(C(=O)n2nc(N)c3cc4ccc(OC)cc4nc32)CC1 (stereo unspecified) | – | inconclusive: 39.8 µM [inhibitor, single point] |
| CCOc1ccc(NC(=O)c2c(NCc3cccs3)sc3c2CCCCC3)cc1 | inactive: -20.7% | – |
| COc1cc2c(cc1OC)-c1c(oc3cc(O)cc(O)c3c1=O)CO2 | inactive: 0.535% | – |
| CCOC(=O)Cc1csc(NC(=O)CSc2nc3sc(C(=O)O)c(C)c3c(=O)[nH]2)n1 | – | inconclusive: 31.6 µM [activator, single point] |
| COc1cccc(NC(=O)CSC2=Nc3ccccc3C3=NC(CC(=O)NCc4ccccc4OC)C(=O)N23)c1 (stereo unspecified) | – | inconclusive: 39.8 µM [activator, single point] |
| CC(C)(C)C1C/C(=C/c2ccco2)C(=O)/C(=C/c2ccco2)C1 (stereo unspecified) | inactive: 22.8% | – |
| COc1ccc(C2Nc3ccccc3C(=O)N2Cc2ccco2)cc1COc1ccc([N+](=O)[O-])cc1 (stereo unspecified) | – | inconclusive: 39.8 µM [inhibitor, single point] |
| CCOc1ccc2nc(NC(=O)C3CCN(S(=O)(=O)c4cnc[nH]4)CC3)sc2c1 | – | inconclusive: 39.8 µM [activator, single point] |

| Compound | max response, negative = inhibition | Potency |
| --- | --- | --- |
| CCC(C)(C)NC(=O)C(c1ccc(C)o1)N(Cc1cccs1)C(=O)Cn1nnc2ccccc21 (stereo unspecified) | – | inconclusive: 39.8 µM [inhibitor, single point] |
| Cc1nnc(NC(=O)C(C)Oc2ccc3c(C)cc(=O)oc3c2)s1 (stereo unspecified) | – | inconclusive: 31.6 µM [inhibitor, single point] |
| Cc1ccc(S(=O)(=O)NNC(=O)Nc2cccc3ccccc23)cc1 | – | inconclusive: 39.8 µM [inhibitor, single point] |
| Cc1cc(NS(=O)(=O)c2ccc(NC(=O)CSc3nnc(-c4ccco4)n3Cc3ccco3)cc2)nc(C)n1 | – | inconclusive: 39.8 µM [activator, single point] |
| COc1ccccc1CNc1ncnc2ccc(-c3ccc4c(c3)OCO4)cc12 | – | inconclusive: 39.8 µM [inhibitor, single point] |
| COc1ccc(NC(=O)Cn2ccn(-c3ccc(C)c(C)c3)c(=O)c2=O)cc1Cl | – | inconclusive: 31.6 µM [inhibitor, single point] |
| Cc1cc(/C=C(\C#N)C(=O)Nc2ccc(F)cc2)c(C)n1-c1ccc(N2CCOCC2)c([N+](=O)[O-])c1 | – | inconclusive: 39.8 µM [inhibitor, single point] |
| COc1ccc2c(Cl)c(C(=O)N/N=C/c3ccc4c(c3)OCO4)sc2c1 | – | inconclusive: 39.8 µM [inhibitor, single point] |
| Cc1ccc(CN2C(=O)C(C)(C)Oc3ccc(C(=O)N4CCCCC4)cc32)cc1 | – | inconclusive: 25.1 µM [activator, single point] |
| COc1ccc(C(=O)c2sc3nc(-c4ccccc4)ccc3c2N)cc1 | – | inconclusive: 31.6 µM [inhibitor, single point] |
| Cc1cccc(-n2nc3c(c2NC(=O)c2ccc(Br)o2)CSC3)c1C | – | inconclusive: 20 µM [inhibitor, single point] |
| O=C(CSc1nc(=O)n(Cc2ccccn2)c2c1CCC2)Nc1cccc(Cl)c1 | – | inconclusive: 39.8 µM [activator, single point] |
| CCOc1ccc(-c2cc3c(=O)n(CC(=O)NCc4ccccc4)ccn3n2)cc1 | inactive: -0.506% | – |
| COc1ccc(COC2OC[C@]3(C)[C@H]4C5=C(CN3C(=O)OC(C)(C)C)[C@H](C)C(CO)C(CO)C5CC[C@@H]24)cc1 (stereo partly specified) | – | inconclusive: 39.8 µM [activator, single point] |
| Fc1cccc(/C=N/NC(=S)Nc2ccccc2Cl)c1 | – | inconclusive: 31.6 µM [inhibitor, single point] |
| Cc1ccc(Oc2ncc(-c3ccc(Cl)cc3)cn2)cc1 | – | inconclusive: 31.6 µM [inhibitor, single point] |
| COc1cc(-c2coc3cc(OCc4ccccc4)c(OC)c(O)c3c2=O)cc(O)c1OC | – | inconclusive: 39.8 µM [activator, single point] |
| COC(=O)[C@@]1(Cc2ccc(OC)cc2)[C@H]2c3cc(C(=O)N4CCCC4)n(CCc4c[nH]c5ccc(O)cc45)c3C[C@H]2CN1C(=O)c1ccccc1 | – | inconclusive: 39.8 µM [activator, single point] |
| OC(c1ccccc1)c1nc2ccccc2n1Cc1c(F)cccc1Cl (stereo unspecified) | inactive: 3.11% | – |
| Cc1ccc(-c2c(C)n([O-])c3c([n+]2=O)CCCC3)o1 | inactive: -3.26% | – |
| Cc1ccc(S(=O)(=O)Nc2nc3ccccc3nc2N2CCN(c3ccccc3F)CC2)cc1 | – | inconclusive: 39.8 µM [inhibitor, single point] |

| Compound | max response, negative = inhibition | Potency |
| --- | --- | --- |
| Cc1ccc2c(CC(=O)Nc3ccc(S(=O)(=O)N4CCCC(C)C4)cc3)coc2c1 (stereo unspecified) | – | inconclusive: 25.1 µM [inhibitor, single point] |
| COC(=O)c1sccc1NC(=S)N1CCN(c2cccc(C)c2C)CC1 | – | active: 15.8 µM |
| Cc1cc(NC(=O)c2cc(-c3ccc(F)cc3)on2)nn1Cc1ccc(Cl)cc1 | – | inconclusive: 3.16 µM [inhibitor, single point] |
| O=C(CSc1nnc(-c2cccs2)o1)Nc1cccc(S(=O)(=O)N2CCCCC2)c1 | inactive: -1.24% | – |
| COc1ccccc1CNc1ncnc2c1nc1n2CCCC1 | inactive: 5.22% | – |
| CCOc1cc2[nH]c(=O)n(CCCCC(=O)NCc3ccco3)c(=O)c2cc1OCC | – | inconclusive: 39.8 µM [activator, single point] |
| CC(C)c1nc(CN(C)C(=O)N[C@H](C(=O)N[C@@H](Cc2ccccc2)C[C@H](O)[C@H](Cc2ccccc2)NC(=O)OCc2cncs2)C(C)C)cs1 | – | inconclusive: 39.8 µM [activator, single point] |
| Cc1ccc(CNC(=O)c2ccc(N3Cc4ccccc4Oc4ncccc43)s2)cc1 | – | inconclusive: 39.8 µM [inhibitor, single point] |
| CCOCCCNC(=O)C(c1ccc(Cl)cc1)N(Cc1ccc2c(c1)OCO2)C(=O)c1ccc(NC(C)=O)cc1 (stereo unspecified) | – | inconclusive: 15.8 µM [activator, partial curve] |
| COc1cc2c(cc1OC)-c1cc3nc4ccccc4nc3n1C(C)(C)C2 | – | inconclusive: 31.6 µM [activator, partial curve] |
| O=C(c1ccccc1C(=O)N1CCN(c2ccccc2)CC1)N1CCN(c2ccccc2)CC1 | – | inconclusive: 31.6 µM [activator, single point] |
| COCCNC(=O)CCCn1c(SCc2ccccc2C)nc2c(sc3ccccc32)c1=O | – | inconclusive: 12.6 µM [activator, partial curve, poor fit] |
| Cc1nn(Cc2ccc(Cl)cc2)c(C)c1NC(=O)CSc1nc2c(c(C(F)(F)F)n1)CCc1ccccc1-2 | – | inconclusive: 7.94 µM [activator, single point] |
| CCOC(=O)/C(=N\Nc1ccccc1)c1csc(Nc2ccc(C)cc2)n1 | – | inconclusive: 31.6 µM [inhibitor, partial curve, poor fit] |
| O=C=Nc1ccc(Cl)c(Cl)c1 | – | inconclusive: 39.8 µM [inhibitor, single point] |
| CCc1ccc2oc(-c3cccc(NC(=O)c4cccnc4)c3)nc2c1 | – | inconclusive: 31.6 µM [activator, single point] |
| COc1cc2c(cc1OC)C(C)N(C(=O)c1cc3ccccc3o1)CC2 (stereo unspecified) | – | inconclusive: 39.8 µM [activator, single point] |
| COc1cc(NC(=S)NC(=O)c2cc(C)cc(C)c2)ccc1NC(=O)c1cccs1 | – | active: 15.8 µM |
| Oc1c(C(c2ccc(Cl)cc2Cl)N2CCN(Cc3ccccc3)CC2)sc2nc(-c3ccco3)nn12 (stereo unspecified) | inactive: 21.7% | – |
